Laboratory results published in the supplement of paper PMC12645437, “Orthogonal IMiD-Degron Pairs Induce Selective Protein Degradation in Cells” (ACS Chemical Biology, 2025).
The other results are listed elsewhere or left out.

B1: Q9UKT9 (peptide)
chain: FYCDVCGAKFTQKGNLLRHIKL
B2: Q9UKT9 (peptide)
chain: FACNVCGAFFTQKGNLLRHIKL
B3: Q9UKT9 (peptide)
chain: FGCDQCGAKFTQKGNLLRHIKL
B4: Q9UKT9 (peptide)
chain: FQCNQCGRNFTQKGNLLRHIKL
B5: Q9UKT9 (peptide)
chain: FNCNQCGAGFTQKGNLLRHIKL
B6: Q9UKT9 (peptide)
chain: FDCPVCGAHFTQKGNLLRHIKL
B7: Q9UKT9 (peptide)
chain: FRCSVCGHGFTQKGNLLRHIKL
B8: Q9UKT9 (peptide)
chain: FLCEICGAVFTQKGNLLRHIKL
B9: Q9UKT9 (peptide)
chain: FCCEICGANFTQKGNLLRHIKL
B10: Q9UKT9 (peptide)
chain: FTCSVCGHVFTQKGNLLRHIKL
B11: Q9UKT9 (peptide)
chain: LMCNQCGFCCTQKGNLLRHIKL
B12: Q9UKT9 (peptide)
chain: LFCEICGFPCTQKGNLLRHIKL
B13: Q9UKT9 (peptide)
chain: LLCPICGFMCTQKGNLLRHIKL
B14: Q9UKT9 (peptide)
chain: FDCPICGHSFTQKGNLLRHIKL
B15: Q9UKT9 (peptide)
chain: FWCPICGAPFTQKGNLLRHIKL
B16: Q9UKT9 (peptide)
chain: FECNQCGANFTQKGNLLRHIKL
B17: Q9UKT9 (peptide)
chain: FACEQCGAEFTQKGNLLRHIKL
B18: Q9UKT9 (peptide)
chain: FFCNICGANFTQKGNLLRHIKL
B19: Q9UKT9 (peptide)
chain: FGCDICGALFTQKGNLLRHIKL
B20: Q9UKT9 (peptide)
chain: FMCDICGATFTQKGNLLRHIKL
B21: Q9UKT9 (peptide)
chain: FKCPICGATFTQKGNLLRHIKL
B22: Q9UKT9 (peptide)
chain: FRCDICGAQFTQKGNLLRHIKL
B23: Q9UKT9 (peptide)
chain: FECEICGARFTQKGNLLRHIKL
B24: Q9UKT9 (peptide)
chain: FDCNQCGRVFTQKGNLLRHIKL
B25: Q9UKT9 (peptide)
chain: FGCNQCGRNFTQKGNLLRHIKL
B26: Q9UKT9 (peptide)
chain: FCCPICGRMFTQKGNLLRHIKL
B27: Q9UKT9 (peptide)
chain: LTCEICGFACTQKGNLLRHIKL
B28: Q9UKT9 (peptide)
chain: FSCDVCGASFTQKGNLLRHIKL
B29: Q9UKT9 (peptide)
chain: FQCPICGACFTQKGNLLRHIKL
B30: Q9UKT9 (peptide)
chain: FSCPICGAFFTQKGNLLRHIKL
B31: Q9UKT9 (peptide)
chain: LWCNQCGFKCTQKGNLLRHIKL
B32: Q9UKT9 (peptide)
chain: FFCNICGAVFTQKGNLLRHIKL

target: no compound (DMSO); assay: log2 fold change of degron read counts, EGFP-low vs EGFP+ sorted cells; higher = lower degron-EGFP level without compound (poor expression or instability); details: compound: DMSO control; 18 h
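Note: jurkat cells carrying a lentiviral library of mutant zinc finger degrons fused to EGFP plus mCherry, mCherry+ cells FACS sorted, degron abundance counted by next-generation sequencing.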

| Sequence | log2 fold change of degron read counts |
| --- | --- |
| B1 | -1.04 |
| B2 | -0.0174 |
| B3 | -1.85 |
| B4 | -0.528 |
| B5 | -0.527 |
| B6 | -1.03 |
| B7 | 0.234 |
| B8 | -1.09 |
| B9 | -1.48 |
| B10 | -0.881 |
| B11 | 0.8 |
| B12 | 1.04 |
| B13 | 0.927 |
| B14 | -1.34 |
| B15 | 1.54 |
| B16 | -2.42 |

| Sequence | log2 fold change of degron read counts |
| --- | --- |
| B17 | -2.25 |
| B18 | 0.00129 |
| B19 | -0.494 |
| B20 | -1.9 |
| B21 | -1.17 |
| B22 | -0.732 |
| B23 | -1.24 |
| B24 | 0.539 |
| B25 | 0.602 |
| B26 | -0.107 |
| B27 | 0.111 |
| B28 | -2.06 |
| B29 | 0.29 |
| B30 | 0.485 |
| B31 | 1.79 |
| B32 | 0.676 |
